Experimental data from PubChem BioAssay AID493208 (National Center for Advancing Translational Sciences (NCATS), 2011).
Among all 44,000 compounds or so, about 340 (0.77%) were called active. Inconclusive results (about 5%) are left out. Calls come from the whole dose curve; as a rule, active = well fitted inhibition curve with a large enough effect; inconclusive = small, poorly fitted or top-dose-only effect; inactive = flat fitted curve, though single readings scatter. The list shows a part of the results.

Test: Acumen qHTS Assay for Inhibitors of the mTORC1 Signaling Pathway in MEF (Tsc2-/-, p53-/-) Cells: Sytravon;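 note: plate controls were DMSO for no effect and rapamycin for full effect; nearly all actives have a fitted effect of over 50% in size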
Conditions: phospho-rpS6 immunofluorescence/PI, 24 h; series mostly up to 38.3 µM; activity change, negative = inhibition: at the top concentration
How it was run: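 Tsc2-/-, p53-/- mouse embryonic fibroblasts (empty-vector line) exposed to compound 24 hrs at 37 C, fixed, immunostained for phospho-rpS6 and counterstained with propidium iodide. Acumen laser scanning gives % positive cells from Alexa 488/PI ratio, thresholded using 7.5 nM rapamycin; PI count gives viability.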

Activity change, negative = inhibition, inactive:
CC(C)Oc1ccc(CNC(=O)c2ccc3c(c2)N(Cc2ccc(F)cc2)CCS3)cc1 -1.19%
O=C(C1CCCCC1)N(Cc1cccnc1)c1nc2c(F)cccc2s1 0.241%
Clc1ccccc1CNc1nc2ccccc2c2nc(-c3ccccc3)nn12 -6.99%
COc1cc2c(cc1OC)C(COc1ccccc1OC)N(C(=O)c1ccc(S(=O)(=O)N3CCCC3)cc1)CC2 (stereo not given) -0.0903%
Cc1ccc(C)c(NC(=O)N2CCN(c3nnc(C)c4c(C)n(-c5ccccc5)nc34)CC2)c1 -19.4%
Cc1cc(C)c(S(=O)(=O)Nc2ccc(-c3ccc(N4CCCCC4)nn3)cc2)c(C)c1 -3.68%
CCOc1ccccc1NC(=O)c1c(NC(=O)Cc2ccccc2)sc2c1CCCC2 8.31%
Cn1cc(C(=O)N2CCN(c3cccc(Cl)c3)CC2)c(=O)c2cc(S(=O)(=O)N3CCCC3)ccc21 -13.1%
COc1ccc(C)cc1NC(=O)CN1CCCN(S(=O)(=O)c2ccc(Br)cc2)CC1 -6.56%
CCOc1ccc(NC(=O)CSc2ccc3ccccc3n2)cc1 8.04%
COC(=O)c1cc(OC)c(OC)c(OC)c1NC(=O)c1cc(=O)n(C)c(=O)n1C -6.63%
COCCCNC(=O)CN1C(=O)COc2ccc(S(=O)(=O)N3CCOCC3)cc21 1.92%
COC(=O)CSCc1nc(-c2ccc(C(=O)OC)cc2)oc1C 0%
O=C(CCNS(=O)(=O)c1cccc2nonc12)Nc1ccc(F)cc1 -16.1%
COC(=O)c1cccc(Nc2c(-c3ccc(O)cc3)nc3nc[nH]n23)c1 -0.295%
COc1ccc(N2CCN(C(=O)c3cn(C4CCCCC4)c(=O)c4c3c3ccccc3n4C)CC2)cc1 -4.28%
Cc1cccc(C)c1NC(=O)N1CCC(C(N)=O)(N2CCCCC2)CC1 -2.84%
O=C(Nc1ccc(F)cc1F)c1cc2ccc3cccnc3c2[nH]1 0.699%
Cc1ccccc1Nc1cc(C(=O)NC2CCC(C)CC2)c2ccccc2n1 (stereo not given) -8.84%
CCOC(=O)c1ccc(NC(=O)c2c(NCc3cccc(OC)c3)sc3c2CCC3)cc1 -13.3%
CC(C)c1ccc(C(=O)Nc2ccc(-c3nc4ccccc4s3)c(Cl)c2)cc1 0.798%
COc1cccc(-n2c(-c3ccco3)nc3c(cnn3-c3ccccc3C)c2=O)c1 -2.29%
COc1ccc(-c2nc(Cn3c(SCc4cccc(F)c4)nc4cccnc43)c(C)o2)cc1 7.93%
Cn1cc(S(=O)(=O)N2CCCCCC2)cc1C(=O)Nc1ccccc1F 3.08%
COc1cccc(C(=O)NCC(c2ccc(N(C)C)cc2)N2CCc3ccccc32)c1OC (stereo not given) 10.8%
COc1ccc2oc(-c3ccc(C)c(NC(=O)c4sc5ccccc5c4Cl)c3)nc2c1 0.158%
Cc1cccc(OCC(=O)Nc2c(C(=O)N3CCN(c4ccccc4)CC3)oc3ccccc23)c1 1.02%
COc1ccc(N2CCN(c3oc(-c4ccccc4C)nc3S(=O)(=O)c3ccccc3)CC2)cc1 -8.21%
CCCCN(CCCC)S(=O)(=O)c1ccc(C(=O)Nc2sc3c(c2C(N)=O)CCN(CC)C3)cc1 4.92%
COc1cc(NC(=O)Cn2nc(Cc3cccnc3)c3ccccc3c2=O)cc(OC)c1OC -23%
Cc1cccc(CSc2nc3ccncc3n2Cc2ccc(C(=O)O)cc2)c1 -5.66%
O=C(Nc1ccc(-c2cn3cccnc3n2)cc1)c1ccccc1F 0.0433%
Cc1ccc(OCc2ccc(-c3nc(C#N)c(N4CCN(c5cccc(Cl)c5)CC4)o3)o2)cc1 -3.77%
CCOc1ccccc1CNC(=O)CCCn1nc(C)c2sc3ccccc3c2c1=O 1.93%
CC1=C(C(=O)Nc2cccc(Cl)c2)C2(CCCCCC2)OC1=O 0.616%
COc1cc(NC(=O)Cn2nc(C(F)(F)F)c3c2CCCC3)cc(OC)c1OC -24.3%
CCC1CN(C(=O)N2CCC(C(=O)NCCCc3ccccc3)CC2)c2ccccc2O1 (stereo not given) -2.22%
CN(C)c1ccc(CNC(=O)Cn2c(=O)oc3cc(S(=O)(=O)NCc4ccccc4)ccc32)cc1 -8.35%
CCCC12CN3CC(C)(CN(C1)C3c1cn(CC)c3ccccc13)C2=O (stereo not given) 2.64%
CCOC(=O)c1c(C)[nH]c(CCC(=O)Nc2ccccc2OCC)c1C 0.697%
COc1ccc2oc(=O)cc(CN3CCN(c4ccccc4OC)CC3)c2c1 0.0994%
COCCCNC(=O)CSc1nc(-c2ccc(OC)cc2)[nH]c1-c1ccc(OC)cc1 -10.6%
CCC(=O)N1c2ccccc2CC1C(=O)NCCN1CCN(c2cccc(Cl)c2)CC1 (stereo not given) 0%
CC(=O)N1CCCc2cc(S(=O)(=O)N3CCC(C(=O)NCc4ccccc4Cl)CC3)ccc21 -20.5%
O=C(NCc1ccccc1Cl)c1ccc2nc(Cc3ccccc3)oc2c1 0.902%
COc1ccc(CNC(=O)c2ccc(CS(=O)(=O)c3ccc(OC)cc3)o2)cc1 -0.898%
Cc1nn(CCC(=O)N2CCN(c3ccccc3F)CC2)c(C)c1S(=O)(=O)N1CCCC1 1.05%
COc1ccc(C(=O)Nc2cc3cc(Cl)ccc3oc2=O)cc1OC 0.168%
CC(=O)N1c2ccc(S(=O)(=O)NCc3ccc(Cl)cc3)cc2CC1C (stereo not given) -20.4%
CCN(CC)C(=O)c1sc2c(c1C)c(=O)n(-c1ccc(OC)cc1OC)c(=O)n2Cc1cc(C)ccc1C -2.34%
COc1cccc(-c2nn(C)c3sc(C(=O)NCc4ccc(C)cc4)cc23)c1 1.88%
CCOC(=O)c1cc(S(=O)(=O)NCc2ccc(F)cc2)[nH]n1 -10.9%
Cc1ccc(-c2nc(C)c(CCNC(=O)C(=O)Nc3ccc(C)c(Cl)c3)s2)cc1 -2.98%
CC(=O)Nc1ccccc1OCc1cc(=O)n2c(C)csc2n1 3.97%
CCN(CCCNC(=O)CSc1cc(=O)n(C)c2cc(Cl)ccc12)c1ccccc1 -0.181%
COc1ccc(CN(C)c2ccc(-c3nc(C)no3)cc2[N+](=O)[O-])cc1 0.934%
Cc1ccc(NC(=O)CSc2ncc3c(n2)-c2ccccc2N(C)S3(=O)=O)c(Cl)c1 1.62%
Cc1cc(=O)n2nc(N3CCC(C(=O)NCc4ccccc4F)CC3)sc2n1 -3.18%
CN1CCN(CCNC(=O)c2cnn(-c3cccc(Cl)c3)c2C2CCN(C(=O)OC(C)(C)C)CC2)CC1 3.75%
CCc1ccc(CNC(=O)Cn2nc(C)c3c(C)n(-c4ccc(C)cc4)nc3c2=O)cc1 2.07%
CCC(CC)C(=O)Nc1cccc(-c2nc3ncccn3c2C)c1 -23.2%
Cc1c(Cl)cccc1NC(=O)c1cc(-c2cccs2)on1 -4.72%
CCOC(=O)c1c(C)[nH]c(C)c1S(=O)(=O)N(C)CC(=O)Nc1cccc(Cl)c1C 5.75%
Cc1ccc(NCc2cccn2-c2nnc(N3CCC(C(=O)NCc4ccccc4C)CC3)s2)cc1 -1.15%
COc1ccc(CN2CCCN(CC(=O)Nc3ccc(Br)cc3F)S2(=O)=O)cc1 0%
Cc1ccc(-n2ncc(C(=O)NCc3ccc4c(c3)OCO4)c2C2CCN(C(=O)OC(C)(C)C)CC2)cc1C -4.5%
Cc1c(C(=O)N2CCC(C)CC2)c(S(=O)(=O)Nc2cccc(C#N)c2)c(C)n1C 0%
CCOc1ccc(NC(=O)CC2Nc3cccc4cccc(c34)NC2=O)cc1 (stereo not given) -0.955%
CC1=C(c2ccc(C)c(C)c2)S(=O)(=O)N=C1N1CCN(c2cccc(C)c2)C(C)C1 (stereo not given) 1.46%
COc1ccc(C(=O)N2CCCCC2CCN2CCOCC2)cc1 (stereo not given) 5.42%
CC(C)Sc1ncc(Cl)c(C(=O)Nc2nc3ccc(S(C)(=O)=O)cc3s2)n1 3.46%
Cc1cc(-c2ccc(S(=O)(=O)Nc3cccc(C(F)(F)F)c3)s2)on1 -15.7%
CCOC(=O)c1ccc(NC(=O)C2=C(C)C(=O)OC23CCCCCC3)cc1 -19.8%
CN(C(=O)CSc1nc2ccc(NC(=O)COc3ccc(F)cc3)cc2s1)c1ccccc1 -19.5%
Cc1cc(C)c(NC(=O)C2CCN(C(=O)N3CC(C)Oc4ccc(Cl)cc43)CC2)c(C)c1 (stereo not given) 0.0257%
COc1ccc(NC(=O)c2cc3c(=O)n(Cc4cccs4)ccc3nc2C)c(OC)c1 -7.52%
COc1ccc(NC(=O)Cn2c(=O)n(Cc3nc(C)no3)c(=O)c3cc4c(cc32)OCO4)cc1 -6.09%
Cc1ccc(-c2nc3cc(Cl)ccc3o2)cc1NC(=O)c1cc2ccccc2o1 5.97%
Cc1c(C(=O)N(C)C)sc2c1c(=O)n(-c1ccccc1C(F)(F)F)c(=O)n2Cc1ccccc1C#N -4.77%
CC(C)Cc1nn2c(=O)cc(COC(=O)c3cccc(NC(=O)c4cccs4)c3)nc2s1 0%
COc1ccc(-c2nsc(NC(=O)COc3ccccc3OC)n2)cc1 1.45%
Cc1ccccc1Cn1c(=O)n(CC2CCC(C(=O)N3CCC(C)CC3)CC2)c(=O)c2sccc21 (stereo not given) -22.9%
COc1ccccc1CNC(=O)CCCn1c(=O)c2ccccc2n(CC(=O)Nc2ccc(C)cc2Cl)c1=O -24.9%
Cn1c(=O)n(Cc2ccccc2Cl)c(=O)c2c1nc1n2CCN1c1ccccc1 6.89%
COc1cccc(CNC(=O)CSc2cc(C)[nH]c(=O)n2)c1 -4.81%
Cc1c(Cl)cccc1NC(=O)CSc1nc(=O)n(Cc2ccncc2)c2c1CCC2 -3.48%
Cc1ccc(C(=O)COC(=O)CCCC(=O)Nc2cc(C(F)(F)F)ccc2Cl)cc1C 7.42%
COc1ccc(C(=O)NCc2ccc3c(c2)CCN3C(C)=O)cc1OC 0.837%
Cc1oc(-c2ccc(C(=O)NCCCOC(C)C)cc2)nc1CS(=O)(=O)c1ccccc1 -6.03%
CCn1ccc2cc(S(=O)(=O)N3CCCN(C(=O)Nc4ccc(C)cc4Cl)CC3)ccc21 2.64%
Cc1cc(Nc2ccccc2F)n2nc(Cc3ccc(Cl)cc3)nc2n1 1.22%
Cc1cccc(NC(=O)CSc2ncc3c(n2)-c2cc(Cl)ccc2N(C)S3(=O)=O)c1C -19.2%
CC(=O)N1CCN(C(=O)C(=O)Nc2c3c(nn2-c2ccc(Cl)cc2)CSC3)CC1 -5.93%
CCc1ccc(OCC(=O)Nc2cc3oc4ccccc4c3cc2OC)c(Br)c1 1.04%
CCOc1ccc2c(c1)c(=O)c(S(=O)(=O)c1ccc(CC)cc1)cn2CC -2.88%
